Laboratory results as given in PubChem BioAssay AID686979 (National Center for Advancing Translational Sciences (NCATS), 2013).
The campaign covered roughly 420,000 compounds. About 50,000 (12%) were called active. The inconclusive results got no clear call from the source; some entries with a clear call stand among them for comparison. The call rests on the fitted dose curve; in most records, active means well fitted inhibition curve with a large enough effect; inconclusive means small, poorly fitted or top-dose-only effect; inactive means flat fitted curve, though single readings scatter. No potency is given beside an inconclusive call; the fits are too rough. Where a SMILES comes first, the peptide text is derived from it. Bridges are numbered along the chain shown (N, C = ends). [ ]: non-standard residue; d: D form.

experiment: qHTS for Inhibitors of human tyrosyl-DNA phosphodiesterase 1 (TDP1): qHTS in cells in presence of CPT; settings: chicken DT40 Tdp1-/-;hTDP1 cells + 20 nM CPT, ATP luminescence, 48 h; activity change, negative = growth inhibition: at 46.2 µM (top of the series); further: nearly all actives have a fitted effect of over 55% in size
Method in brief: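 Chicken DT40 Tdp1-/- cells stably complemented with human TDP1 were seeded at 400 cells/well in medium containing 20 nM camptothecin, exposed to pin-transferred compounds, and grown at 37 °C for at least 48 hr. Viability was read as ATP luminescence.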
On the % scale 0 is the no-effect control and ±100 the full control effect; potency means the concentration at half of the fitted maximal effect; tags describe the fitted curve by direction and shape.

SMILES | Potency | activity change, negative = growth inhibition
CCc1c(C)sc(NC(=O)c2noc(C)c2[N+](=O)[O-])c1C#N | inactive | 
O=C(CNC(=O)c1ccccc1)OCN1C(=O)c2ccccc2C1=O | inconclusive [inhibitor, single point] | 
c1ccc(N2CCN(c3ccccc3)C2c2cccnc2)cc1 | inconclusive [inhibitor, single point] | 
CC(C)Cn1c(N)c(S(=O)(=O)c2cccs2)c2nc3ccccc3nc21 | active: 16.4 µM | 
COc1cc(NC(=O)c2onc(C)c2Cl)cc(OC)c1OC | inactive | 
C[N+](C)(CCCCCC[N+](C)(C)CCCN1C(=O)c2ccccc2C1=O)CCCN1C(=O)c2ccccc2C1=O | inactive | 
CCCC(=O)Nc1cc(C(=O)O)ccc1Sc1ccccc1 | inactive | 
CC[C@H](C)[C@@H]1NC(=O)[C@@H](CC(C)C)NC(=O)[C@H](C(C)C)NC(=O)[C@H]2CSSC[C@H](NC1=O)C(=O)N2 (cyclo(C[dC]V[dL]I); disulfide 1-2) | active: 0.0651 µM | 
COc1ccc(OC)c(N=C(C)C2=C(O)COC2=O)c1 | inconclusive [inhibitor, single point] | 
CCCCCCN1C[C@H](n2cc(COC(=O)c3ccccc3)nn2)[C@@H](O)C[C@@H]1c1ccc(OC)cc1 | inconclusive [inhibitor, single point] | 
O=C(CNc1cccc2ccccc12)N/N=C/c1cccc(Oc2ccccc2)c1 | inconclusive [inhibitor, single point] | 
CC1CCCCN1Cc1c(O)ccc2c(=O)c(-c3ccc(Br)cc3)coc12 (stereo unspecified) | inconclusive [inhibitor, partial curve] | 
O=C(Cn1c(=O)n(Cc2ccco2)c(=O)c2ccccc21)Nc1ccc(Cl)cc1Cl | inconclusive [inhibitor, partial curve] | 
Cc1nn(-c2ccccc2)c(C)c1NC(=O)COc1ccc(C#N)cc1 | inconclusive [inhibitor, single point] | 
CN(C)CCN(C(=O)c1ccc2ccccc2c1)c1nc2cc3c(cc2s1)OCO3 | inconclusive [inhibitor, single point] | 
O=C(Nc1ccc(S(=O)(=O)Nc2nccs2)cc1)c1cc(-c2ccccn2)nc2ccccc12 | inactive | 
O=C(COc1ccccc1-c1ccccc1)NCc1ccco1 | inactive | 
C=CCNc1nc(N)c([N+](=O)[O-])c(Nc2ccccc2OC)n1 | inconclusive [inhibitor, single point] | 
CCOC(=O)CC1(NC(=O)c2cc(COc3c(F)cccc3F)on2)CCCCC1 | active: 11.6 µM | 
CC(=O)NCc1ccc(-c2csc(N)n2)s1 | inactive | 
Cc1cc(C)n(-c2cc(N3CCN(C(=O)c4ccc(C(C)(C)C)cc4)CC3)ccc2[N+](=O)[O-])n1 | inconclusive [inhibitor, single point] | 
COc1cc(-c2noc(-c3ccc(N4CCN(C)CC4)c([N+](=O)[O-])c3)n2)cc(OC)c1OC | active: 3.26 µM | 
COc1cc(C2c3cc4c(cc3OC(N3CCOCC3)C2C)OCO4)cc(OC)c1OC(C)=O (stereo unspecified) | inconclusive [inhibitor, single point] | 

SMILES | Potency | activity change, negative = growth inhibition
CCN(CC)S(=O)(=O)c1ccc2nc(NC(=O)c3cccnc3)sc2c1 | active: 20.6 µM | 
CCOCCn1c(=NC(=O)CSCC(=O)N2CCOCC2)sc2cc(OC)ccc21 | inactive | 
O=C(c1ccc(Cl)cc1)N1CCC(c2ccncc2)CC1 | inconclusive [inhibitor, single point] | 
C=CC1=C(C(=O)O)N2C(=O)[C@@H](NC(=O)/C(=N/OCC(=O)O)c3csc(N)n3)[C@H]2SC1 | inactive | 
O=C(Cn1c(=O)ccc2cc(S(=O)(=O)N3CCCC3)ccc21)NCc1ccc(Cl)cc1 | inconclusive [inhibitor, partial curve] | 
Cc1cccc(NC(=S)N2CCN(c3cc(C)ccc3C)CC2)c1 | inconclusive [inhibitor, single point] | 
CCC1(C)COC(c2ccc3c(c2)OCO3)OC1 (stereo unspecified) | inactive | 
CC1CCN(S(=O)(=O)c2cccc(-c3cn4cc(Cl)ccc4n3)c2)CC1 | inconclusive [inhibitor, single point] | 
N#CCCN(C(=O)c1ccco1)c1ccccc1 | inactive | 
COc1cc(CN(CC2CCCO2)C(=O)c2ccco2)cc(OC)c1OC (stereo unspecified) | inactive | 
COc1cc(C(=O)N2CCCCC2c2cc(C(=O)NC(C)C)no2)cc(OC)c1C (stereo unspecified) | inconclusive [inhibitor, partial curve, poor fit] | 
CC(C)c1cccc(-c2ccc3c(c2)S(=O)(=O)c2cccc(C(=O)NC4CCCC4)c2C3=O)c1 | inconclusive [inhibitor, single point] | 
O=C(O)c1cc2c(ccc3ccccc32)o1 | inconclusive [inhibitor, partial curve] | 
CN(Cc1cnn(C)c1)Cc1nc(-c2ccc(Cl)cc2)no1 | inconclusive [inhibitor, single point] | 
COc1cccc(-c2nnc3sc(C4CCCCC4)nn23)c1 | active: 18.4 µM | 
CCC(CO)NC(=O)C(=O)Nc1c2c(nn1-c1ccc(F)cc1)CSC2 (stereo unspecified) | inactive | 
CCCCCCCc1c(C#N)c(N)[nH]c(=S)c1C#N | inconclusive [inhibitor, partial curve] | 
S=C(Nc1ccc(Cl)c(Cl)c1)N1CCN(c2ccccn2)CC1 | inactive | 
O=C(CSc1ncnc2c1oc1ccccc12)Nc1ccc2c(c1)OCCO2 |  | inconclusive: -34.3% [inhibitor]
CC#CCOCC1CN(C)C(=O)O1 (stereo unspecified) | inactive | 
Cc1ccc(NC(=O)CSc2nnc(COc3ccc(C#N)cc3)n2-c2ccccc2)cc1C | inconclusive [inhibitor, single point] | 
COc1ccc(N2CCN(c3oc(-c4ccc(OC)c(OC)c4)nc3C#N)CC2)cc1 | inconclusive [inhibitor, single point] | 
C[C@H](NC(=O)C1CC(=O)N(c2ccc3c(c2)OCCO3)C1)C(=O)N1CCC(C(=O)O)CC1 (stereo partly specified) | inactive | 
